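Compound exposure: 48 hours, 5 concentrations, 96-well plates. GI50 is the concentration that inhibits growth by half. TGI marks complete inhibition of growth.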
System: NCI-H322M lung
Assay: DTP human tumour cell line panel, 48 h

COc1ccc(C(C)=C(c2ccc(OCCN3CCCCCC3)cc2)c2ccc(OCCN3CCCCCC3)cc2)cc1
GI50: 3.33 µM
TGI: 8.38 µM

Source: PubChem BioAssay (NCI)
